According to the supplement of paper PMC5499739:
In all, about 16,000 sequences were measured (“Z-score”: median about -0.37, highest 2% from about 3.1 on). The list shows a part of the results.

System: RBM10 RRM1-ZnF-RRM2 (GST-tagged construct)
Assay: RNAcompete 7-mer binding Z-score; higher = stronger binding preference
Outline: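 Each heptamer motif was given a one-sided Z-score for enrichment across the probes that contained it. GST-tagged RBM10 constructs (20 pmol) were combined with 1.5 nmol of a designed pool of 241 399 RNAs of up to 41 nt, transcribed from microarray-derived DNA templates. Binding took place in 1 ml Hepes pH 7.8 buffer containing KCl, NaCl, glycerol, DTT, BSA and glutathione Sepharose beads for 30 min at 4°C. After four 2-min washes at 4°C, bound RNA was identified by microarray hybridisation.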

| Sequence | RNAcompete 7-mer binding Z-score |
| --- | --- |
| CUGAUAU | -0.741 |
| UGAGUCU | -0.144 |
| GCUCGCA | -0.373 |
| CUUCGCG | -0.777 |
| GGGUAGU | 3.17 |
| ACGUCCG | -0.777 |
| GGGUUCA | 1.32 |
| AAACUCG | -0.825 |
| UUCGCGG | -0.111 |
| AUCGGCU | -0.683 |
| GAACGUA | 0.374 |
| GGCGGAG | 2.84 |
| AGAAAAC | -0.114 |
| UCUUAAA | -0.763 |
| UCUUUGG | -0.464 |
| CUUGUUC | -1.01 |
| AGACCUA | -1.07 |
| UUUUUAU | -0.624 |
| GCCGGAC | -0.282 |
| UUCGUGU | -0.544 |
| AUUCCUC | -0.832 |
| AGAUUUA | -0.253 |
| GGCCUAU | -0.588 |

| Sequence | RNAcompete 7-mer binding Z-score |
| --- | --- |
| AGCCGAA | -0.795 |
| UAAGAUA | -0.027 |
| ACCGCAU | -0.934 |
| CUGUGUA | -0.417 |
| GAGACAU | 0.301 |
| CCGUCUU | -0.934 |
| UAGAUUU | -0.57 |
| UUGGCGC | -0.103 |
| AGCCUUC | -0.719 |
| UACGUGC | -0.369 |
| GCCUCAU | -0.938 |
| UCACUAA | -0.723 |
| CUGAGCU | -0.632 |
| UGGCAAC | 0.541 |
| ACUGGUA | 0.0641 |
| AGUUAAA | -0.0415 |
| GCGGACA | 0.807 |
| CUAGUGA | -0.202 |
| GGCCCUA | -0.439 |
| GGUGCUG | 1.72 |
| GCCGUAC | -0.635 |
| CGUCUUG | -0.77 |
| GUAUCCG | -0.311 |

| Sequence | RNAcompete 7-mer binding Z-score |
| --- | --- |
| CUCUAUG | -0.763 |
| ACUCCAA | -0.533 |
| CCAUAGA | -0.464 |
| AGUGCCU | -0.577 |
| UAAGUCU | -0.635 |
| CAAAUUC | -0.752 |
| UUAUGGA | 0.683 |
| UAGGCAA | 1.53 |
| CGGGGGG | 3.04 |
| GGCCUCG | -0.26 |
| AACGCAC | -0.701 |
| UGGACAU | 0.559 |
| UCGUCUU | -0.519 |
| CGUCGUA | 0.0532 |
| UAGCCUA | -0.865 |
| AUGCGCA | -0.246 |
| AAUACCU | -0.774 |
| UAUAGGU | 0.92 |
| CGGCAUA | -0.224 |
| AGUCGCA | -0.122 |
| AGCAUCA | -0.271 |
| CAAACGG | 0.829 |
| GUAAUCA | 0.213 |

| Sequence | RNAcompete 7-mer binding Z-score |
| --- | --- |
| UGAGGCU | 0.315 |
| AUAAGAG | 0.406 |
| UACCUCC | -0.755 |
| GAUGUAG | 1.5 |
| CCAAUUG | -0.453 |
| CAUUGGG | 1.37 |
| UAUAGUC | -0.621 |
| ACCAUGA | -0.602 |
| CUGCGCG | -0.398 |
| AACCCUA | -0.883 |
| GAACCCG | -0.744 |
| CAGGCCU | -0.624 |
| AUUGGGC | 1.78 |
| GUCGGGU | 1.85 |
| ACGCUAA | -0.646 |
| GUGCCGG | 0.556 |
| ACCCAAG | -0.639 |
| CAUGUUG | -0.326 |
| GUUUGCU | -0.551 |
| GUUGACA | 0.29 |
| CUUUACU | -0.967 |
| UUGCGUC | -0.595 |
| CGAUAGG | 1.46 |

| Sequence | RNAcompete 7-mer binding Z-score |
| --- | --- |
| UUCAAUU | -0.719 |
| UUAAGAA | -0.151 |
| CAGUAAA | -0.14 |
| UGUUGGG | 2.15 |
| CCCCCCG | -0.118 |
| AGGUCAA | 0.479 |
| UUUGACU | -0.785 |
| CUAGAGG | 0.323 |
| GCAGGAG | 2.76 |
| UUCCGAC | -0.708 |
| GGCGUAA | 0.96 |
| CGGGCUG | 0.625 |
| AGGCUCA | -0.373 |
| AGUAAAA | -0.0415 |
| AACAAGG | 2.83 |
| GUAUCUC | -0.581 |
| GGUUAUA | 0.592 |
| GUAGGUU | 1.62 |
| CAUCCCA | -0.486 |
| UUGAGAU | -0.122 |
| CAACGAC | -0.256 |
| AGCAACA | 0.0131 |
| GCCACCA | -0.566 |

| Sequence | RNAcompete 7-mer binding Z-score |
| --- | --- |
| GGUCAGU | 0.796 |
| ACAUGUA | -0.122 |
| UCUCGAG | -0.566 |
| CCCUGUU | -0.981 |
| UCACAUC | -0.734 |
| GUCAGCG | 0.177 |
| AAACGAA | 0.108 |
| UCAGUUU | -0.712 |
| GAUGCAA | 0.308 |
| GACCAAU | -0.209 |
| ACCUUAC | -0.981 |
| GUCCCGA | -0.581 |
| AUUGUCA | -0.599 |
| UUAUCUU | -0.77 |
| UCAGAUU | -0.635 |
| UUAGUGU | -0.0161 |
| UAACGCA | -0.519 |
| CUGGGGU | 1.79 |
| UAGAAGC | -0.0343 |
| CAGCCAA | -0.344 |
| CACUUCU | -1.01 |
| GUCGUUG | 0.0604 |
| AUGGGAG | 3.64 |

| Sequence | RNAcompete 7-mer binding Z-score |
| --- | --- |
| ACCACAC | -0.533 |
| UCUGUCU | -0.81 |
| UAAAGGU | 1.78 |
| GGCCGUC | -0.398 |
| AGGGACA | 2.4 |
| AGUGCGG | 1.38 |
| AACAGGU | 1.74 |
| UCCUAAC | -0.843 |
| GACGAUA | 0.144 |
| CAAAGAG | 0.166 |
| AAGAUUC | -0.482 |
| CGCACGA | 0.0204 |
| GGAGAGC | 2.03 |
| CGGCUGG | 0.348 |
| UCGAGUG | 0.133 |
| UGGUCGC | 0.0786 |
| UCCGUCC | -0.73 |
| CCGUAGA | -0.373 |
| AUCUGUA | -0.621 |
| UAUUAUA | -0.49 |
| AGGCAAA | 0.658 |
| UGGCAGU | 0.436 |
| UCCCGGC | -0.573 |

| Sequence | RNAcompete 7-mer binding Z-score |
| --- | --- |
| CGCCGCU | -0.679 |
| GUGCUCC | -0.471 |
| CGUUGUA | -0.384 |
| AAGAUAA | -0.0233 |
| CAUAGAG | 0.345 |
| CUUAGGG | 0.516 |
| GGAUCCA | 0.122 |
| GCAUACG | 0.111 |
| GCCUUUU | -0.963 |
| GGUCUUU | -0.406 |
| CAGGAGU | 1.71 |
| GGAGCAC | 1.66 |
| CCAAUCC | -0.672 |
| UAUCGUA | -0.428 |
| AGGGUAA | 4.77 |
| GUCCAUG | -0.351 |
| UGUCCGG | -0.242 |
| CUUCUCA | -0.981 |
| UACAACC | -0.511 |
| ACGAGUC | -0.439 |
| GGUUCCC | -0.144 |
| UUCAAGA | -0.409 |
| UUCUUCC | -0.781 |
